From PubChem BioAssay AID1347073 (National Center for Advancing Translational Sciences (NCATS), 2019)
The campaign covered roughly 45,000 compounds. About 200 (0.44%) were called active. Inconclusive results (about 7%) are left out. The call rests on the fitted dose curve; in most records, active means well fitted activation curve with a large enough effect; inconclusive means small, poorly fitted or top-dose-only effect; inactive means no such curve, though single readings can be large or run the other way. This is one part of the list.

assay: qHTS of TDP-43 Inhibitors: NCGC Sytravon Library Screen; conditions: yeast TDP-43 toxicity rescue, BacTiter-Glo growth, 24 h; series mostly up to 46.1 µM; growth rescue (activation): at the top concentration; further: 0% is about no effect; nearly all actives have a fitted effect of over 55% in size
Outline: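 TDP-43-expressing yeast, pregrown in raffinose, seeded at OD600 0.02 in galactose medium with compound for 24 hr at 30 deg C. Growth read by BacTiter-Glo luminescence, so rescue of toxicity appears as activation.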

| SMILES | growth rescue (activation) |
| --- | --- |
| COc1cccc(/C=C/C(=O)OCC(=O)Nc2cccc(S(=O)(=O)N(C)C)c2)c1 | inactive: -14.1% |
| Cc1cc(C)n(/N=C/c2cccc([N+](=O)[O-])c2)c(=O)c1 | inactive: 0.0706% |
| COc1ccc(/C=C\c2nc(=O)c3ccccc3o2)cc1 | inactive: -13.8% |
| Cc1nc2cc(C(=O)N3CCc4ccccc43)ccc2n1-c1ccc(F)c(F)c1 | inactive: 28.6% |
| NS(=O)(=O)c1ccc(CCNC(=O)c2ccccc2OCc2ccc(F)cc2)cc1 | inactive: 6.99% |
| CCOC(=O)c1cc(C#N)c(SCc2cccc3ccccc23)nc1C | inactive: -25.8% |
| O=C(N/N=C/c1ccccc1C(=O)O)C(=O)N1CCCCC1 | inactive: 8.07% |
| Cc1ccc(NC(=O)c2ccc3c(c2)CCN3S(C)(=O)=O)cc1C | inactive: 3.31% |
| O=C(CCCNC(=O)c1ccc(Cl)cc1)NCc1ccc(F)cc1 | inactive: 9.21% |
| CCn1c(C)cs/c1=N\C(=S)Nc1ccccc1C | inactive: 5.65% |
| Nc1nc2n(n1)C(c1ccco1)CC(c1ccc(Cl)cc1Cl)N2 (stereo not drawn) | inactive: -3.08% |
| CSc1ccccc1C(=O)NC1CCSc2ccccc21 (stereo not drawn) | inactive: 34.8% |
| O=C(N/N=C/c1cccs1)c1cccnc1 | inactive: 0.651% |
| Cc1ccc2nc(Cl)c(C3CC(c4cccs4)=NN3C(=O)CCCC(=O)O)cc2c1 (stereo not drawn) | inactive: 2.03% |
| O=c1c(C(c2ccc(O)cc2)c2c(O)nc3n(c2=O)CCCS3)c(O)nc2n1CCCS2 | inactive: 1.88% |
| O=C(Cc1ccccc1)Nc1ccc(NC(=O)c2cccc(Cl)c2)cc1 | inactive: 9.83% |
| Cc1cc(C)n2nc(SCC(=O)N3CCC(C)CC3)nc2n1 | inactive: 13.9% |
| COc1ccccc1OCC(=O)Nc1ccc2c(c1)OCO2 | inactive: 17.3% |
| Cc1ccccc1C(=O)NCCCNC(=O)c1cnccn1 | inactive: 12% |
| O=C(c1ccco1)N1CCC(c2nc3c(nnn3Cc3ccc(F)cc3)c(=O)[nH]2)CC1 | inactive: 25.9% |
| CNc1c(NS(=O)(=O)c2ccc(C3CCCCC3)cc2)c(=O)oc2ccccc12 | inactive: -5.71% |
| NC(=O)COC(=O)c1ccc(S(=O)(=O)N2CCCCCC2)cc1 | inactive: 14.7% |
| O=C(CSc1ccccc1[N+](=O)[O-])NC1CCS(=O)(=O)C1 (stereo not drawn) | inactive: -6.79% |
| CCOC(=O)Cn1nc(C)c(NC(=O)COc2ccc(OC)cc2)c1C | inactive: 22.9% |
| c1cc(-c2ccc(CN3CCOCC3)cc2)n2ccnc2c1 | inactive: -5.59% |
| COc1ccc(OC)c(-n2c(-c3ccc(O)cc3O)n[nH]c2=S)c1 | inactive: 14.2% |
| COc1ccccc1C(=O)NNC(=S)Nc1ccccc1 | inactive: 1.58% |

| SMILES | growth rescue (activation) |
| --- | --- |
| CC(Oc1ccccc1)c1nnc(SCC(=O)NC2CC2)n1C (stereo not drawn) | inactive: 3.75% |
| O=C(Cn1nnc(-c2ccccc2Cl)n1)Nc1cccc(S(=O)(=O)N2CCCC2)c1 | inactive: -8.21% |
| Cc1ccc(Cn2nnc3c(=O)[nH]c(C4CCN(S(=O)(=O)Cc5ccccc5)CC4)nc32)cc1 | inactive: -7.66% |
| O=S(=O)(CCc1ccncc1)C1Cc2cccc3cccc1c23 (stereo not drawn) | inactive: -15.1% |
| C/C(=N\NC(=O)c1ccccc1)c1ccc(C)c([N+](=O)[O-])c1 | inactive: 20.2% |
| COc1ccc(CN(C(=O)c2ccc(-c3ccccc3)[nH]2)C(C(=O)NC(C)(C)C)c2ccncc2)cc1 (stereo not drawn) | inactive: 15.2% |
| COc1ccccc1NS(=O)(=O)c1ccc2c(c1)OCCO2 | inactive: -5.17% |
| NC(c1csc(Nc2ccccn2)n1)C1CCCCC1 (stereo not drawn) | inactive: 1.55% |
| CCc1cccc(NC(=S)N(CCCN2CCOCC2)C(C)c2cc3cccc(OC)c3o2)c1 (stereo not drawn) | inactive: 12.5% |
| O=Cc1cccn1-c1nccc(-c2ccco2)n1 | inactive: 20.4% |
| O=C(N/N=C/c1ccc([N+](=O)[O-])o1)c1cn(-c2ccccc2)nc1-c1ccc(F)cc1 | inactive: 0.817% |
| Cc1ccc(C[n+]2cc(-c3ccc(Cl)cc3)n3c2CCC3)cc1 | inactive: 1.97% |
| COc1cc(/C=C(\C#N)C(=O)NC2CCCCC2)ccc1OCc1ccc(C(=O)O)cc1 | inactive: 16.6% |
| COc1ccccc1CNc1nc(NCc2ccccc2)nc2ccsc12 | inactive: 9.72% |
| O=C(NCC(c1cccs1)N1CCOCC1)c1cc([N+](=O)[O-])ccc1Cl (stereo not drawn) | inactive: 20.8% |
| CN(CCO)c1ccc(C=NNc2ccc([N+](=O)[O-])cc2S(=O)(=O)Nc2ccccc2C(=O)O)cc1 | inactive: -41.9% |
| COc1cc(CN2CC(=O)N(c3ccc(C)c(Cl)c3)C2=S)cc(OC)c1OC | inactive: 13.3% |
| c1ccc(-c2csc(Nc3ncccn3)n2)cc1 | inactive: 10.2% |
| COc1ccc(N2CCN(S(=O)(=O)c3cc(C)ccc3OC)CC2)cc1 | inactive: 28.6% |
| C/C(Cl)=C\COc1cc(C)nc2c(Br)cccc12 | inactive: 4.39% |
| CC1CN(C(=O)COC(=O)c2ccc(F)cc2Cl)CC(C)O1 (stereo not drawn) | inactive: -6.26% |
| O=C1NC2(CCCCCC2)C(=O)N1Cc1ccccc1Br | inactive: 27% |
| O=C(COc1ccccc1[N+](=O)[O-])NCc1cccnc1 | inactive: -6.34% |
| Cc1ccc(NCc2cccnc2)cc1 | inactive: -24.3% |
| Cc1cc(C)c2[nH]c(=O)c(CN(Cc3cccs3)C(=S)NCc3ccco3)cc2c1 | inactive: 28% |
| Cc1ccccc1-n1c(SCc2c(C)noc2C)nnc1-c1cccnc1 | inactive: -17.5% |
